“And” between values parts separate entries of the source, which are not always exact repeats. Equal entries are not always repeated. Inconclusive means that the source gave no clear call. Such entries were picked first, then a sample of the others. Potencies beside an inconclusive call are fits to weak or partial responses and may not hold up. The source made the active and inactive calls. The call rests on the fitted dose curve; in most records, active means well fitted inhibition curve with a large enough effect in the signal ratio in the repeat runs (not every such curve was filed as active); inconclusive means weak or mixed curves, or effect the other way; inactive means no such curve, though single readings can be large or run the other way; the % refers to the signal ratio.
molecular target: Estrogen receptor beta (Homo sapiens) (UniProt Q92731); assay: qHTS assay to identify small molecule antagonists of the estrogen receptor beta (ER-beta) signaling pathway (AID 1259378); conditions: ER-beta-UAS-bla HEK293T, beta-lactamase FRET ratio, 16 h; activity, negative = inhibition: at 92.4 µM (top of the series) unless noted
UniProt Q92731, sequence (Q92731 whole entry, looked up): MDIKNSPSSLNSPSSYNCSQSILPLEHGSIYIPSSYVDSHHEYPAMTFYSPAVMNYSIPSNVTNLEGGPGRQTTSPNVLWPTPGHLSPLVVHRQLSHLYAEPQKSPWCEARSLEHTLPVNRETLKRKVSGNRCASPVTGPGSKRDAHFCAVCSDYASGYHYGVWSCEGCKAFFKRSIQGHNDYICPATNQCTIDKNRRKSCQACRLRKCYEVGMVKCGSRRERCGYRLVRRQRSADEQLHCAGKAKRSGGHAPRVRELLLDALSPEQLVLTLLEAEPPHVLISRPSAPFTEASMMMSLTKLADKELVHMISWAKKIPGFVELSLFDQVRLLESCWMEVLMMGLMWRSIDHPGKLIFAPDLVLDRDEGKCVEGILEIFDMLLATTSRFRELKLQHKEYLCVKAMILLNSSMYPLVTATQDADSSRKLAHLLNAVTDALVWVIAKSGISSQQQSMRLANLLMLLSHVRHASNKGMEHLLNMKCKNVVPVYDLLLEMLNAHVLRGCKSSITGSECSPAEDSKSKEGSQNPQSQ
Source text: National Center for Advancing Translational Sciences [NCATS]
NIH Chemical Genomics Center [NCGC]
U.S. Environmental Protection Agency [EPA]
National Institutes of Environmental Health Sciences [NIEHS]
National Toxicology Program [NTP]
U.S. Food and Drug Administration [FDA]
Estrogen receptor (ER), a nuclear hormone receptor, plays an important role in development, metabolic homeostasis and reproduction. Two subtypes of ER, ER-alpha and ER-beta, have similar expression patterns with some uniqueness in both types. Endocrine disrupting chemicals (EDCs) and their interactions with steroid hormone receptors like ER causes disruption of normal endocrine function. To identify the compounds that inhibit ER signaling, an ER-beta-UAS-bla GripTite cell line (Life Technologies, Madison, WI, USA) containing a beta-lactamase reporter gene under the control of an UAS response element was used to screen Tox21 10K compound library.
Tox21 Assay Protocol Summary:
ER-beta-UAS-bla HEK293T cells were dispensed at 2,000 cells/4 uL of assay medium containing 2% charcoal stripped FBS per well into black wall/clear-bottom 1536-well plates using a Multidrop Combi (ThermoFisher Scientific, Waltham, MA) dispenser. After the assay plates were incubated at a 37C and 5% CO2 for 6 hr, 23 nL of compounds dissolved in DMSO, positive controls or DMSO only was transferred to the assay plate by a Pintool station (Kalypsys, San Diego, CA), followed by addition of 1 uL (1nM as final concentration) of 17-beta-estradiol (E2) in assay medium using a BioRAPTR FRD (Flying Reagent Dispenser, Aurora Discovery, San Diego, CA). The plates were incubated at 37C and 5% CO2 for 16 hr. Then 1 uL of LiveBLAzerTM B/G FRET substrate was added using a Flying Reagent Dispenser, the plates were incubated at room temperature for 2 hours, and fluorescence intensity was measured by an Envision plate reader (PerkinElmer, Shelton, CT).
On the % scale 0 is the no-effect control and ±100 the full control effect; potency means the concentration at half of the fitted maximal effect; tags describe the fitted curve by direction and shape or compound fluorescence and quenching.

| Structure (SMILES) | Potency | activity, negative = inhibition |
| --- | --- | --- |
| Oc1ccccc1O | inconclusive: 43.8 µM [inhibitor, partial curve] | – |
| CC[C@@H]1C[C@H](N(Cc2cc(C(F)(F)F)cc(C(F)(F)F)c2)C(C)=O)c2cc(C(F)(F)F)ccc2N1C(=O)OC(C)C | – | inconclusive: 15% |
| O=C(O)CCCCC1CCSS1 (stereo not given) | inactive | – |
| c1ccc2c(c1)c1cccc3ccc4cccc2c4c31 | – | inconclusive: 14.1% |
| CCCCN1C(=O)c2ccccc2C1=O | inactive | – |
| Clc1ccccc1-c1nc(-c2ccncc2)no1 | inconclusive: 10.6 µM [fluorescent, partial curve, poor fit] | – |
| Oc1cccc(Nc2ccccc2)c1 | – | inconclusive: -26.8% |
| O=[N+]([O-])c1ccc(O/N=C/c2cc(Br)c(O)c(Br)c2)c([N+](=O)[O-])c1 | – | inconclusive: -43.7% |
| C[Si](Cl)(c1ccccc1)c1ccccc1 | – | inconclusive: -26.6% |
| CCCCCCCCCCCCN1CCCCCC1=O | inconclusive: 68.6 µM [inhibitor, single point] | – |
| C=C[C@](C)(O)CC[C@@H]1[C@@]2(C)CCCC(C)(C)[C@@H]2CC[C@@]1(C)O | active: 27.3 µM | – |
| CC(O)C#CC(C)O (stereo not given) | – | inconclusive: 17.8% |
| c1ccc2[nH]c(-c3cscn3)nc2c1 | inconclusive: 26.6 µM [activator, partial curve, poor fit] | inconclusive: 2.77% |
| Cc1[nH]cnc1CN1CCc2c(c3ccccc3n2C)C1=O | inactive | – |
| CN(Cc1ccc(C(C)(C)C)cc1)Cc1cccc2ccccc12 | inconclusive: 33.5 µM [fluorescent, single point] | – |
| CCC(C)n1ncn(-c2ccc(N3CCN(c4ccc(OC[C@H]5CO[C@](Cn6cncn6)(c6ccc(Cl)cc6Cl)O5)cc4)CC3)cc2)c1=O (stereo not given in full) | inconclusive: 2.98 µM [inhibitor, full curve] | – |
| CCOC(=O)N1CCC(n2c(=O)[nH]c3cc(Cl)ccc32)CC1 | – | inconclusive: -37.2% [at 42.5 µM] |
| CC(=O)c1ccc2c(c1)Cc1ccccc1-2 | – | inconclusive: -26.3% |
| CN(C)c1ccc(N=Nc2ccccc2C(=O)O)cc1 | active: 15.4 µM | – |

| Structure (SMILES) | Potency | activity, negative = inhibition |
| --- | --- | --- |
| Cc1cccc(C)c1NC(=O)C(C)N (stereo not given) | inconclusive: 33.5 µM [inhibitor, single point] | – |
| CN1CCC(=C2c3ccccc3CCc3sccc32)CC1 | inconclusive: 33.5 µM [rising, single point] | – |
| COc1ccc(-c2nc3ccc(C4=NNC(=O)CC4C)cc3[nH]2)cc1 (stereo not given) | – | inconclusive: -32.2% [at 42.5 µM] |
| Cc1cc(O)c2c(c1)C(=O)c1cc(O)cc(O)c1C2=O | inconclusive: 13.4 µM and inconclusive: 13.7 µM [fluorescent, full curve] | – |
| CCCCCOc1ccccc1/C(=C\SC)n1ccnc1 | active: 10.6 µM | – |
| Oc1ccc(Oc2ccccc2)cc1 | – | inconclusive: -42% |
| Cc1cccc(C)c1NC(=O)CN1CCN(CCCC(c2ccc(F)cc2)c2ccc(F)cc2)CC1 | inconclusive: 26.6 µM [rising, partial curve] | – |
| NC(=O)CC[C@@H](N)C(=O)O | – | inconclusive: 28.4% [at 42.5 µM] |
| CC1=CC2C3CC(C=C3C)C2C1 (stereo not given) | inactive | – |
| Nc1ccc(S(=O)(=O)NC(=O)c2ccccc2)cc1 | inactive | – |
| CCCCOC(=O)/C=C\C(=O)OCCCC | – | inconclusive: -38.3% |
| CCC(C)N(C)C(=O)c1cc2ccccc2c(-c2ccccc2Cl)n1 (stereo not given) | – | inconclusive: -55.7% [at 42.5 µM] |
| CCCCCCCCCCCCOC(=O)c1ccc(O)cc1 | – | inconclusive: -36.8% |
| O=C(O)CCN(C1(C(=O)NO)CCCC1)S(=O)(=O)c1ccc(Oc2ccc(F)cc2)cc1 | – | inconclusive: -1.2% |
| Nc1ccc(Cl)cc1[N+](=O)[O-] | – | inconclusive: -24.7% |
| C/C(CC(C)C)=N\O | inactive | – |
| C[C@@H]1C[C@H]2[C@@H]3CCC4=CC(=O)C=C[C@]4(C)[C@@]3(Cl)[C@@H](O)C[C@]2(C)[C@@]1(OC(=O)c1ccco1)C(=O)CCl | – | inconclusive: -24.1% [at 42.5 µM] |
| CCc1c(C(=O)NN2CCCCC2)nn(-c2ccc(Cl)cc2Cl)c1-c1ccc(Br)cc1 | active: 4.33 µM | – |

same assay, conditions: ER-beta-UAS-bla HEK293T, beta-lactamase FRET ratio, 16 h; at 42.5 µM (top of the series)

| Structure (SMILES) | activity, negative = inhibition |
| --- | --- |
| CO[C@H]1C=CO[C@@]2(C)Oc3c(C)c(O)c4c(O)c(c(/C=N/N5CCN(C)CC5)c(O)c4c3C2=O)NC(=O)/C(C)=C\C=C[C@H](C)[C@H](O)[C@@H](C)[C@@H](O)[C@@H](C)[C@H](OC(C)=O)[C@@H]1C | inconclusive: -30.9% |

same assay, conditions: ER-beta-UAS-bla HEK293T, beta-lactamase FRET ratio, 16 h; at 92.4 µM (top of the series)

| Structure (SMILES) | activity, negative = inhibition |
| --- | --- |
| CO[C@H]1C=CO[C@@]2(C)Oc3c(C)c(O)c4c(O)c(c(/C=N/N5CCN(C)CC5)c(O)c4c3C2=O)NC(=O)/C(C)=C\C=C[C@H](C)[C@H](O)[C@@H](C)[C@@H](O)[C@@H](C)[C@H](OC(C)=O)[C@@H]1C | inconclusive: -48.4% |

Reference: PubChem BioAssay (Tox21)
